Positions count from the first letter of the chain named. These are yes or no findings as the source states them, for the method shown. For some assays here: In cells and extracts the contact can be indirect. Some results given as binding are weak or reduced against the parent protein; the word gives no strength. Tags and fused reporters may be left off the sequences shown. Values belong to the substance of their own block, whether it stands above or below them.
Key:
[1] = target: T1, GFP-4E-T (human 4E-Transporter, wild type, full length) (human) (UniProt Q9NRA8); test: co-IP; GFP-Trap magnetic beads with lysates of transfected HEK293 cells (1000 µg in 1 ml NET buffer: 50 mM Tris-HCl pH 7.5, 150 mM NaCl, 0.5% NP-40, 1 mM EDTA), 1.25 h at 4°C; western blotting of input and bound proteins
T1 sequence: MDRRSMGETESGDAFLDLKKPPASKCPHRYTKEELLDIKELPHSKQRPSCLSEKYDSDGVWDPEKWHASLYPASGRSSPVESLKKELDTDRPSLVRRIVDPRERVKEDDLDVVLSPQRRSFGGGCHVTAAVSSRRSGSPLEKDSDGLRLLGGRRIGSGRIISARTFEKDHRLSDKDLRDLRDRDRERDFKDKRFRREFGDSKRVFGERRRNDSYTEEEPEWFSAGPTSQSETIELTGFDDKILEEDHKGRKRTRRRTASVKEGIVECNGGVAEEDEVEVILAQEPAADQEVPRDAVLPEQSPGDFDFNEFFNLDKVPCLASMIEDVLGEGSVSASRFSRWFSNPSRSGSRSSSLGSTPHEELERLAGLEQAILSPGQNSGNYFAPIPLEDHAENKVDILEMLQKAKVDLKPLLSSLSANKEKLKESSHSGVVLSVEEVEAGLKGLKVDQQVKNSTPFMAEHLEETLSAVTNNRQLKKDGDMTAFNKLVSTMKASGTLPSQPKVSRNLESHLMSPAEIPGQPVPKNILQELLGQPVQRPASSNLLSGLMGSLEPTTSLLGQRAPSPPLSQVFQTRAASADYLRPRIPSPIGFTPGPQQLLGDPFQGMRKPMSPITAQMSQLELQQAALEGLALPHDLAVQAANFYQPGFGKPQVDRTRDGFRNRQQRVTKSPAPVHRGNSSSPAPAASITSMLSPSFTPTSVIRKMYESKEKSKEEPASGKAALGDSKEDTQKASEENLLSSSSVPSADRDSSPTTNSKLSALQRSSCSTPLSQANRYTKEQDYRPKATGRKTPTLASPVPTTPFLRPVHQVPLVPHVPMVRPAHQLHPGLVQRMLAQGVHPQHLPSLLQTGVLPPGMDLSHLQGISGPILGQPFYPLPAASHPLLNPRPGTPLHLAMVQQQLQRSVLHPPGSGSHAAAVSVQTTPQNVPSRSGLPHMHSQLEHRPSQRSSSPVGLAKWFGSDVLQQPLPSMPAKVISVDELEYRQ

Sequences of proteins named here, by UniProt entry; tags and fusion partners are left off.
UniProt A5YKK6: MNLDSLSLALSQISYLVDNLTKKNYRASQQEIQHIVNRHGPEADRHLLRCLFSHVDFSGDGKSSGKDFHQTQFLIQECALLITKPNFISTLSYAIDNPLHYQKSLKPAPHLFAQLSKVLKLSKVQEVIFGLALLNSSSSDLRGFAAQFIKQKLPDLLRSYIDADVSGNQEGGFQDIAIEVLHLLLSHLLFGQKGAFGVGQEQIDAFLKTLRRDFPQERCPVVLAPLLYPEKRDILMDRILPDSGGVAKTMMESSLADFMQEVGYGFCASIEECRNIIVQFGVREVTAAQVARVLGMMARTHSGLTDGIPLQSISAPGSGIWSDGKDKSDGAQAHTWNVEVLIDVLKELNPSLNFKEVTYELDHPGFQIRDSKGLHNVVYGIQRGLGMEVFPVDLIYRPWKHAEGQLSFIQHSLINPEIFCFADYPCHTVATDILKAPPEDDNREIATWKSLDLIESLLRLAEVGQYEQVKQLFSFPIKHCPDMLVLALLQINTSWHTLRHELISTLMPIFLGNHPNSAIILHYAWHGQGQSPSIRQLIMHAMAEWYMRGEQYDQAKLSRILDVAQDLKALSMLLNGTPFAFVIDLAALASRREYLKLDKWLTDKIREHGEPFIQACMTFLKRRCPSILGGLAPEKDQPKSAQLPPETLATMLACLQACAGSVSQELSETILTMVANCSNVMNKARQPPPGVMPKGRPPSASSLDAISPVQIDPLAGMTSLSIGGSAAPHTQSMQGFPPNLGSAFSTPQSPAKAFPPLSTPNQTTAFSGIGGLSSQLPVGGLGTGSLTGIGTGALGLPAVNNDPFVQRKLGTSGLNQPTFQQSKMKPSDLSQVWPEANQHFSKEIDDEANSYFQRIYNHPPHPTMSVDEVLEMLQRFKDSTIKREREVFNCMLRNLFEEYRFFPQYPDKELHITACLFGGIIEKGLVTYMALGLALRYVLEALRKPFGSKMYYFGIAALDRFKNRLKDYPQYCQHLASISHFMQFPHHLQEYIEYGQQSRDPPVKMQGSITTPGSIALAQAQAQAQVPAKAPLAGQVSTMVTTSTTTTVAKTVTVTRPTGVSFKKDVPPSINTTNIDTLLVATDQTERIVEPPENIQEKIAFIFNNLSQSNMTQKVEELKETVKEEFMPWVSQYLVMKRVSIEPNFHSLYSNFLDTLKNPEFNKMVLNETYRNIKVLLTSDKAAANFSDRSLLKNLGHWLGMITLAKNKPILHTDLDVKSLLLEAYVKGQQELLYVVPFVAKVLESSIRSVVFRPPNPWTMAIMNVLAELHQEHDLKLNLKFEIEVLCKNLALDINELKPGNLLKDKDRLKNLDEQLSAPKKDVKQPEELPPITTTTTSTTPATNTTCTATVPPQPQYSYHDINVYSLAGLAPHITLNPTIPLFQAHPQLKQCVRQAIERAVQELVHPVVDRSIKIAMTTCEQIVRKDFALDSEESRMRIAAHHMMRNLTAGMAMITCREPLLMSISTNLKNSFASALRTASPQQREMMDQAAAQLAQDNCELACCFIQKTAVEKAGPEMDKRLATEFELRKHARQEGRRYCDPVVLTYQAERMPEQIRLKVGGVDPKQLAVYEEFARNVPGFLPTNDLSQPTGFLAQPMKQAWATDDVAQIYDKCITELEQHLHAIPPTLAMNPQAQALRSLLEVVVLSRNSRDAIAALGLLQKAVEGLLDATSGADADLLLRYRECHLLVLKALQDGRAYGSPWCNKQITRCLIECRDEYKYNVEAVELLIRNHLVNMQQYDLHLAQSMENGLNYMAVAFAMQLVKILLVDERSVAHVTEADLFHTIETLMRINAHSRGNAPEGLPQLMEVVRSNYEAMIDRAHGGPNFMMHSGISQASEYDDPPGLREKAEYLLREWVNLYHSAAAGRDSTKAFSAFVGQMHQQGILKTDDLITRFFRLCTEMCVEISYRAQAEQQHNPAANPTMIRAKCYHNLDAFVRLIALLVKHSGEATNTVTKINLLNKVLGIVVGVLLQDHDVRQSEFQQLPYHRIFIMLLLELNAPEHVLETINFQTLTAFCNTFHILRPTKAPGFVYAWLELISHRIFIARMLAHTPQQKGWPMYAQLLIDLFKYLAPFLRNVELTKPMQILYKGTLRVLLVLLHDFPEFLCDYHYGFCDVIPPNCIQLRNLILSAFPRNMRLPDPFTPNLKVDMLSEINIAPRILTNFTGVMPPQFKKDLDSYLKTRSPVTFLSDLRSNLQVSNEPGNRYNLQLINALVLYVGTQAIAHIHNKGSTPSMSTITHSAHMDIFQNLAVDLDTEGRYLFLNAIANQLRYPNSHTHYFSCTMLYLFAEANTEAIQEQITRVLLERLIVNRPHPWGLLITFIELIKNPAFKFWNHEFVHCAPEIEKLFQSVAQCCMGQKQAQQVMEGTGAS
UniProt Q9UIV1: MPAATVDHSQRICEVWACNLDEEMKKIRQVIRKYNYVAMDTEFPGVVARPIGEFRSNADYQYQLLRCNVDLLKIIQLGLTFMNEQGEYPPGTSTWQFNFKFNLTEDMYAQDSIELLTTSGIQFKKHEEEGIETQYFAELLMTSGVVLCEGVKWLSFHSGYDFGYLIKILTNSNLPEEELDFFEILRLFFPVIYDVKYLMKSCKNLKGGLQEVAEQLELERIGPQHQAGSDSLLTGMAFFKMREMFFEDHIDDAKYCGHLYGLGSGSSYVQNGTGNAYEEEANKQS
UniProt P06730: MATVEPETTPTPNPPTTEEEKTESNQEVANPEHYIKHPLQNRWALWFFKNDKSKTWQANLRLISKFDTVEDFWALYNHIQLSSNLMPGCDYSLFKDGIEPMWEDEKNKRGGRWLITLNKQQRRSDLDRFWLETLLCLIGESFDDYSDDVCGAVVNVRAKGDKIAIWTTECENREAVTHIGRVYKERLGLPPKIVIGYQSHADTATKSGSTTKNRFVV

GFP-4E-T-Y30A (human) = target: T2, GFP-4E-T-Y30A (human) (UniProt Q9NRA8); test: as above
T2 sequence: T1 sequence with Y30A

GFP-4E-T1-180 (human) = target: T3, GFP-4E-T1-180 (human) (UniProt Q9NRA8); test: as above
T3 sequence: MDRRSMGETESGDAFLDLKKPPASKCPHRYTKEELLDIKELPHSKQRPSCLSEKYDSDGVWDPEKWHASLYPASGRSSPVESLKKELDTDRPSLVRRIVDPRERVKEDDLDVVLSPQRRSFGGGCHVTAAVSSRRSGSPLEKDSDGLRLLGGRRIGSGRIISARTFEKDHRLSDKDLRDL

[2] = target: T4, GFP-4E-T YLL → AAA (4Emut) (human) (UniProt Q9NRA8); test: as above
T4 sequence: T1 sequence with Y30A, L35A, L36A

[3] = target: T5, human 4E-T, yeast two-hybrid fusion (human) (UniProt Q9NRA8); test: two-hybrid; S. cerevisiae AH109, pGBKT7 and pGADT7 AD fusions; growth on -Trp-Leu-Ade-His dropout plates (high stringency), 30°C
T5 sequence: T1 sequence

[4] = target: T6, human 4E-T mutated in the three key residues of YXXXXLL, yeast two-hybrid fusion (human) (UniProt Q9NRA8); test: as above
T6 sequence: T1 sequence with Y30A, L35A, L36A

binding [1]: binds weakly
Substance: FLAG-CNOT1 (from UniProt A5YKK6 1-2376)

binding [1]: binds weakly
Substance: FLAG-CNOT7 (from UniProt Q9UIV1 1-285)

binding (GFP-4E-T-Y30A (human)): no binding | binding [1]: binds | binding (GFP-4E-T1-180 (human)): binds | binding [2]: no binding
Substance: eIF4E (endogenous, HEK293) (from UniProt P06730 1-217)

binding [3]: binds | binding [4]: no binding
Substance: human eIF4E, yeast two-hybrid fusion (from UniProt P06730 1-217)

Reference: publication PMC3950672
